Measured values reported in PubChem BioAssay AID463173 (ICCB-Longwood Screening Facility, Harvard Medical School, 2010).
Among all 52,000 compounds or so, about 1,700 (3.3%) were called active. No stated cut-off is given here; in the data, active means survival mostly below about 52% (no sharp cut-off); inactive means mostly above about 56%. This is one part of the list.

These molecules were tested on Wild type (assay: S. aureus survival, RN4220 and DeltatarO strains – OD600, teichoic acid synthesis inhibitors, primary screen (AID 463173)). Conditions: S. aureus RN4220 wild type/DeltatarO growth, OD600, 18 h, hits give low values, screened at 18.75 µg/mL (by protocol).

Compound | survival
Cc1ccc(F)cc1NC(=O)CCSc1nc(-c2ccco2)cc(C(F)(F)F)n1 | inactive: 69%
O=C(c1ccc(-n2cnnn2)cc1)N(C1CCCCC1)C1CCCCC1 | inactive: 109%
CCN(C(=O)c1cc2cc(Br)cc(OC)c2oc1=O)c1ccccc1 | inactive: 76%
O=C(CSCc1ccccc1Cl)N/N=C/c1ccc(O)cc1O | inactive: 122%
O=C(NC1CCCCCC1)c1ccc(CS(=O)c2ccc(Br)cc2)o1 (stereo unspecified) | inactive: 94%
O=C(COC(=O)c1cccs1)Nc1ccccc1 | inactive: 119%
COc1cccc(C2c3c(-c4ccccc4O)n[nH]c3C(=O)N2Cc2cccnc2)c1 (stereo unspecified) | inactive: 89%
O=S(=O)(Nc1ccc(-c2ccc(N3CCCC3)nn2)cc1)c1ccc(OC(F)(F)F)cc1 | active: -6%
Cc1ccc(NC(=O)CSCc2cnn(-c3ccccc3)c2-n2cccc2)c(Cl)c1 | inactive: 86%
CCc1ccccc1NC(=O)Cn1c(=O)n(-c2ccc(C)c(C)c2)c(=O)c2oc3ccccc3c21 | inactive: 86%
Nc1ncc(Cc2ccccc2)s1 | inactive: 97%
COc1cc(Br)ccc1C1C(C(=O)Nc2ccc(C)cc2C)=C(C)Nc2nnnn21 (stereo unspecified) | inactive: 171%
COc1ccc(CCNc2nc3ccccc3c3nc(-c4cccc(C)c4)nn23)cc1OC | inactive: 24%
COc1ccc(S(=O)(=O)NCCc2sc(-c3cccc(C)c3)nc2C)cc1 | inactive: 72%
Cc1ccc(CCNC(=O)c2cccc(Nc3nc4ccccc4nc3-n3nc(C)cc3C)c2)cc1 | inactive: 70%
Cc1nn(CC(=O)N2CCN(c3cccc(Cl)c3)CC2)c(=O)c2c1sc1ccccc12 | inactive: 82%
CCOC(=O)c1ccc(NC(=O)CCc2c(C)nc3c(c(C)nn3C(C)(C)C)c2C)cc1 | inactive: 75%
CCc1ccc(-n2nc(C)c3c(C(=O)N4CCN(c5cccc(Cl)c5)CC4)cc(C)nc32)cc1 | inactive: 124%
CC(C)CCNC(=O)c1ccc(Cn2c(SCC(N)=O)nc3ccccc3c2=O)cc1 | inactive: 64%

Compound | survival
CCOc1cc(C(=O)OCc2cc(=O)n3nc(C4CC4)sc3n2)cc(OCC)c1OCC | inactive: 71%
O=c1sc(Nc2ccccc2)nc2ccccc12 | inactive: 106%
COc1cc(OC)c(NC(=O)NCc2cccn2Cc2ccccc2)cc1Cl | inactive: 87%
CCCc1ccc(-c2ccc(C(=O)Oc3ccc(Br)cc3)cc2)nc1 | inactive: 140%
CCOc1ccc(NC(=O)Cn2c(=O)c(CNc3ccccc3)cc3cc4c(cc32)OCCO4)cc1 | inactive: 65%
O=C1COc2cc(S(=O)(=O)CCC(=O)N3CCN(c4ccccc4)CC3)c(Cl)cc2N1 | inactive: 95%
Cc1ccc(S(=O)(=O)NCCc2nnc3ccc(SCC(=O)Nc4ccc(OC(F)(F)F)cc4)nn23)cc1 | inactive: 89%
CN(C(=O)Cn1ncc2c1-c1ccccc1OC2)c1ccc(Br)cc1 | inactive: 73%
CCS(=O)(=O)c1cccc(C(=O)N2CCN(c3nc4c(C)ccc(Cl)c4s3)CC2)c1 | inactive: 73%
CCCCCn1c(CNC(=O)c2ccc(F)cc2)nc2ccccc21 | inactive: 90%
COC(=O)c1ccc(CSc2nc3c([nH]c4ccccc43)c(=O)n2-c2cc(C)cc(C)c2)o1 | active: 0%
COc1ccc(OC)c(CCNC(=O)C(C)n2c(C)c3cnn(-c4ccccc4)c(=O)c3c2C)c1 (stereo unspecified) | inactive: 87%
COc1ccccc1CNS(=O)(=O)c1ccc(N2CCCCS2(=O)=O)cc1 | inactive: 73%
CN(C)C1(CNC(=O)COc2ccc(C(C)(C)C)cc2)CCCCC1 | inactive: 97%
CCOC(=O)c1c(C)[nH]c(C)c1S(=O)(=O)N1CCC(C(=O)NCc2ccc(N(C)C)cc2)CC1 | inactive: 55%
CCCCCn1c(-c2cccc(C)c2)nc2ccccc21 | active: 11%
O=C(Nc1ccc2c(c1)OCO2)c1cc(-c2ccc(Cl)cc2)on1 | inactive: 92%
COc1ccccc1OCC(=O)Nc1c(C(=O)c2ccc(C)cc2)oc2ccccc12 | inactive: 73%
Cc1cc(C)cc(-n2ccnc(NCc3ccc(F)cc3)c2=O)c1 | inactive: 70%

Compound | survival
COc1ccc(Cl)cc1C(=O)Nc1c2c(nn1-c1ccc(Cl)cc1)CS(=O)(=O)C2 | inactive: 97%
COc1ccccc1NC(=O)c1oc2ccccc2c1NC(=O)COc1ccccc1OC | inactive: 86%
COc1ccc(Cl)cc1NC(=O)CSc1nc(=O)[nH]c2c1CCCC2 | inactive: 71%
CCOc1ccc(CNC(=O)C2=Cc3cc(Br)ccc3OC2)cc1OC | inactive: 78%
Cc1ccc(Cn2c(=O)n(-c3ccc(C)c(C)c3)c(=O)c3c(C)c(C)sc32)cc1 | active: 46%
CCOc1ccc(NC(=O)Cn2cc(C(=O)c3ccccc3)c(=O)c3cc4c(cc32)OCO4)cc1 | inactive: 80%
COc1cc(NC(=O)N2CCC(CN3CCc4ccccc4C3)CC2)cc(OC)c1 | inactive: 81%
Cc1ccc2oc(-c3ccc(NC(=O)c4cccc(F)c4)c(C)c3)nc2c1 | inactive: 100%
CC(=O)N1c2c(cc(Br)cc2S(=O)(=O)NCc2ccccc2Cl)CC1C (stereo unspecified) | inactive: 73%
COc1ccc(NC(=O)c2cc(C)nc3c2c(C)nn3-c2cccc(Cl)c2C)c(OC)c1 | inactive: 85%
COc1cc(Cl)c(NC(=O)CN(C)S(=O)(=O)c2ccc3c(c2)CCCC(=O)N3)c(OC)c1 | inactive: 59%
CCOc1ccc(OCC)c(NC(=O)c2csc3c2CCCC3)c1 | active: -1%
Cc1ccc(-c2nnc(Nc3cccc(O)c3)c3ccccc23)cc1S(=O)(=O)N1CCCCC1 | inactive: 87%
COc1ccc(CCNC(=O)c2cc(S(=O)(=O)N3CCCC(C)C3)cn2C)cc1OC (stereo unspecified) | inactive: 60%
O=C(O)c1ccc2c(c1)N(Cc1ccc(F)cc1Cl)C(=O)c1ccccc1S2 | inactive: 60%
COc1ccc(NC(=O)CCS(=O)(=O)c2nc(-c3ccc4c(c3)OCO4)cc(C(F)(F)F)n2)c(OC)c1 | inactive: 91%
COC(=O)C1C(=O)C2=C(CC1C)Nc1ccccc1NC2c1cc(F)ccc1F (stereo unspecified) | inactive: 123%
CC(CNC(=O)CCCn1c(=O)c2cccn2c2ccccc21)c1ccccc1 (stereo unspecified) | inactive: 54%
